The whole screen tested about 390,000 compounds, of which about 930 (0.24%) were called active. Inconclusive means that the source gave no clear call. Such entries were picked first, then a sample of the others. The call rests on the fitted dose curve; in most records, active means well fitted activation curve with a large enough effect; inconclusive means small, poorly fitted or top-dose-only effect; inactive means no such curve, though single readings can be large or run the other way. A potency beside an inconclusive call is a rough fit, not a confirmed value.
Test: qHTS for Suppressors of FUS Proteinopathy: Primary screen using FUS-linked yeast assay; further: nearly all actives have a fitted effect of over 55% in size;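 on growth rescue (activation): plate controls were DMSO vehicle for no effect and reference control for full effect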
Conditions: S. cerevisiae FUS-expressing, OD600, 24 h; Potency: growth rescue; growth rescue (activation): at 76.6 µM (top of the series)
Procedure, shortened: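 Compound concentration series was pinned onto galactose-induced FUS-expressing yeast seeded at OD 0.005. Plates sat 24hr at 30C; absorbance at 600 nm gave growth. DMSO served as background control.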
Potency means the concentration at half of the fitted maximal effect; tags describe the fitted curve by direction and shape.

SMILES	growth rescue (activation)	Potency
COc1cc(C=C2C(=O)c3ccccc3C2=O)ccc1O	inactive: 1.5%	
COc1ccc(NC(=O)c2cc(-c3cc(OC)c(OC)c(OC)c3)nc3ccccc23)cc1OC		inconclusive: 11.2 µM [activator, partial curve, poor fit]
CCOc1cc(C(=O)Nc2ccc(-c3nc4cc(C)ccc4o3)cc2)cc(OCC)c1OCC	inactive: -3.23%	
O=C(Nc1ccc2nc(SCC(=O)N3CCCC3)sc2c1)c1ccccc1	inactive: 9.75%	
O=C(Cn1ccc2ccccc2c1=O)NCCC(=O)Nc1cccc(Cl)c1		inconclusive: 11.2 µM [activator, partial curve]
O=C(NC(Cc1c[nH]c2ccccc12)C(=O)N/N=C/c1ccc(Br)cc1)c1cccs1 (configuration not stated)		inconclusive: 35.5 µM [activator, single point]
COc1ccc(NC(=O)CCCNC(=O)Cn2cnc3sc4c(c3c2=O)CCCC4)cc1OC		inconclusive: 31.6 µM [activator, partial curve, poor fit]
CS(=O)(=O)c1ccc2nc(NC(=O)CS(=O)(=O)c3ccc(Cl)cc3)sc2c1		inconclusive: 31.6 µM [activator, single point]
COc1ccc(/C=N/NC(=O)c2ccoc2C)cc1COc1ccc(Cl)cc1		inconclusive: 28.2 µM [activator, single point]
CCCCOCCCNC(=O)C[C@@H]1C[C@@]2(C(=O)OC)CCCCC=C2N(Cc2ccc(Cl)cc2Cl)C1=O		inconclusive: 28.2 µM [activator, partial curve, poor fit]
Cc1cccc(CN2CCN(C3CN(C4CCCCC4)S(=O)(=O)C3)CC2)c1 (configuration not stated)	inactive: -11.9%	
O=C(CN1CCN(c2ccc(O)cc2)CC1)Nc1cc(S(=O)(=O)N2CCCCC2)ccc1Cl	inactive: 40.5%	
CC(=O)c1ccc(N2C(=O)CC(N3CCN(S(=O)(=O)c4cc(C)ccc4C)CC3)C2=O)cc1 (configuration not stated)		inconclusive: 28.2 µM [activator, partial curve, poor fit]
COc1ccc(S(=O)(=O)N(Cc2nc(-c3ccc(C)cc3)no2)C2CCCCC2)cc1		inconclusive: 35.5 µM [activator, single point]
Cc1c(NC(=O)c2nc3ccccc3n(C)c2=O)cccc1[N+](=O)[O-]	inactive: -15.8%	
COc1cccc(N2CCN(C(=O)C3CCCN(S(=O)(=O)c4ccc(Br)s4)C3)CC2)c1 (configuration not stated)		inconclusive: 14.1 µM [activator, partial curve]
Cc1ccc(Cl)c2sc(N3CCN(C(=O)C4CC4)CC3)nc12		inconclusive: 28.2 µM [activator, single point]
Cc1cccc(Nc2nc(-c3ccccc3)c(C(=O)Nc3cccnc3)s2)c1	inactive: 23.3%	
COc1ccc(-c2cccc(-c3cc(=O)oc4cc(OC)cc(OC)c34)c2)cc1		inconclusive: 28.2 µM [activator, single point]
O=C(Nc1ccc2c(c1)OCCO2)C(c1ccnc2ccccc12)N1CCC(Cc2ccccc2)CC1 (configuration not stated)		inconclusive: 15.8 µM [activator, partial curve]
Cc1ccnc(Nc2nc(-c3ccccc3)cs2)c1	inactive: -1.96%	

SMILES	growth rescue (activation)	Potency
COc1ccccc1NC(=O)CSc1nnc(C2CCCCC2)o1	inactive: 22.8%	
CCS(=O)(=O)Nc1ccc(-c2ccc(NS(=O)(=O)CC)c(OC)c2)cc1OC	inconclusive: 92.2% [activator]	
COc1cc(-c2cc3nc(NCCc4ccc(S(N)(=O)=O)cc4)ccn3n2)cc(OC)c1OC		inconclusive: 39.8 µM [activator, single point]
CCS(=O)(=O)N1Cc2ccccc2CC1C(=O)Nc1cc(S(C)(=O)=O)ccc1Cl (configuration not stated)		inconclusive: 2.82 µM [activator, partial curve, poor fit]
Cc1ccccc1NC(=O)Cc1nc(COC(=O)COc2ccccc2C(C)C)cs1		inconclusive: 25.1 µM [activator, partial curve]
C=CCn1c(SCC(=O)c2cc(C)n(Cc3cccs3)c2C)nnc1-c1ccncc1		inconclusive: 28.2 µM [activator, partial curve, poor fit]
CCOC(=O)[C@]12CCCCC/C=C\1N(CCc1ccc(Cl)cc1)C(=O)[C@H]2CC(=O)NCc1ccccc1		inconclusive: 39.8 µM [activator, partial curve, poor fit]
CC(C)(C)c1ccc(C(=O)Nc2ccc(CN3CCS(=O)(=O)CC3)cc2)cc1		inconclusive: 31.6 µM [activator, single point]
CCOc1ccc(C(=O)NCC(c2ccco2)S(=O)(=O)c2ccc(C)cc2)cc1 (configuration not stated)	inactive: 23.1%	
CSc1ccc(CN(C)C(=O)c2ccc(S(=O)(=O)Nc3ccccc3)cc2)cc1		inconclusive: 20 µM [activator, partial curve, poor fit]
Cc1oc(-c2ccc(Cl)cc2)nc1CN1CCC(C(=O)NCc2ccco2)CC1		inconclusive: 14.1 µM [activator, partial curve]
N#Cc1c(NC(=O)c2ccncc2)sc2c1CCC2		inconclusive: 35.5 µM [activator, partial curve, poor fit]
CCOC(=O)[C@@H]1[C@H]2COc3ccc(Br)cc3[C@H]2N2C(=O)N(c3cccc(Cl)c3)C(=O)[C@]12C		inconclusive: 25.1 µM [activator, single point]
CCC(C)c1ccc(NC(=S)NCc2cccs2)cc1 (configuration not stated)	inactive: -4.38%	
COc1ccc(-n2c(SCC(=O)Nc3cc(C(=O)O)ccc3C)nc3ccccc3c2=O)cc1Cl		inconclusive: 50.1 µM [activator, single point]
C=CCO/N=C(\C)c1c(O)c(C)c(-c2ccccc2)n(-c2ccccc2)c1=O		inconclusive: 4.47 µM [activator, full curve]
C[C@H]1O[C@@H](O[C@H]2CC[C@@]3(C)C(CC[C@]4(C)C3C=C[C@]35OC[C@@]6(CCC(C)(C)C[C@H]63)[C@@H](O)C[C@]54C)[C@]2(C)CO)[C@H](O)[C@@H](O[C@@H]2O[C@H](CO)[C@@H](O)[C@H](O)[C@H]2O)[C@H]1O (some centres not stated)		inconclusive: 39.8 µM [activator, single point]
CC1(C)CC(=O)C(N=Nc2ccc(Br)cc2)=C(O)C1	inactive: 4.05%	
CCCCCCn1c(=O)n2n(c1=O)[C@@H]1CN(S(=O)(=O)c3ccc(C)cc3)C[C@]1(O)[C@@H](OC(=O)NCc1ccccc1)C2		inconclusive: 31.6 µM [activator, single point]
CCn1c(C(=O)N2CCC(C(=O)N3CCN(c4cccc(C)c4C)CC3)CC2)cc2sccc21		inconclusive: 39.8 µM [activator, single point]
COc1ccc(C2Nc3ccccc3C(=O)N2Cc2ccccc2)cc1COc1ccc(NC(C)=O)cc1 (configuration not stated)		active: 15.8 µM

SMILES	growth rescue (activation)	Potency
CCOc1cc(CNc2ccc(N(C)C)cc2)cc(Br)c1OCC(=O)NC(C)(C)C		inconclusive: 28.2 µM [activator, partial curve, poor fit]
CCn1c2ccccc2c2cc(NC(=O)COC(=O)c3cccc(F)c3F)ccc21	inactive: -7.9%	
NC(=O)C1CCN(C(=O)COc2ccc3c(c2)oc(=O)c2ccccc23)CC1	inactive: 5.01%	
CCn1c(SC(C)C(=O)Nc2ccc(N3CCOCC3)cc2)nnc1C1CC1 (configuration not stated)		inconclusive: 25.1 µM [activator, single point]
COc1ccc(Cl)cc1NC(=O)NCC1CCN(C(=O)OC(C)(C)C)CC1		active: 31.6 µM
COc1cccc(-c2nn(C)c3sc(C(=O)NCc4cc(OC)ccc4OC)cc23)c1		inconclusive: 39.8 µM [activator, single point]
O=C1c2ccncc2C(=O)N1C1CCCCC1	inconclusive: 62.3% [activator]	
COc1ccc(C2CC3(CC(C)(C)NC(=S)N3)Oc3cc(O)cc(C)c32)cc1OC (configuration not stated)		inconclusive: 39.8 µM [activator, partial curve, poor fit]
C/C(=N\NC(=O)c1ccc(O)cc1)c1ccc(NC(=O)Cc2ccccc2)cc1	inactive: 11.7%	
Cc1nn2c(=O)cc(CN(C)c3ccccc3)nc2s1	inactive: 2.54%	
CCOc1ccc(-c2nonc2NC(=O)c2oc3ccc(F)cc3c2C)cc1	inactive: -14.9%	
O=C(OCCCOc1ccc(F)cc1)c1ccc(O)cc1O	inactive: 5.63%	
O=C(c1ccoc1)N1CCC2(CC1)Oc1ccc(Cl)cc1C(=O)C21CC(c2ccc(Cl)cc2)=NO1 (configuration not stated)		inconclusive: 50.1 µM [activator, single point]
COCCn1c(=S)[nH]c2cc(C(=O)N3CCN(c4cccc(Cl)c4)CC3)ccc2c1=O		inconclusive: 31.6 µM [activator, partial curve, poor fit]
OC(CN1CCN(c2ccccn2)CC1)Cn1c2ccc(Cl)cc2c2cc(Cl)ccc21 (configuration not stated)		inconclusive: 50.1 µM [activator, single point]
COc1ccccc1NC(c1ccc(Cl)cc1)c1nnc(-c2cccc(F)c2)o1 (configuration not stated)	inactive: 30.5%	
CC(C)(C)c1ccc(-c2cn(C[C@H](Cc3ccccc3)n3c(=O)c4ccccc4n3Cc3ccccc3)nn2)cc1		inconclusive: 15.8 µM [activator, partial curve]
COC(=O)CN1C(=S)N(c2ccc(Cl)cc2)C(=O)C1CC(=O)Nc1ccc(Cl)cc1 (configuration not stated)		inconclusive: 50.1 µM [activator, single point]
Cc1cccc(-c2nc3c(c(SCC(=O)N4CCOCC4)n2)Cc2c(CO)cnc(C)c2O3)c1		inconclusive: 28.2 µM [activator, partial curve, poor fit]
COc1ccc(NC(=O)C(c2ccc(C)cc2)N(C)C(=O)/C=C\c2ccc3c(c2)OCO3)cc1 (configuration not stated)		inconclusive: 20 µM [activator, single point]

From PubChem BioAssay AID1347120 (National Center for Advancing Translational Sciences (NCATS), 2019)
